# Experimental data reported in the supplement of paper PMC11417369.
# ± gives the standard deviation of the averaged measurements. This is one part of the list.
# System: PfAP2-I AP2 domain 3 (GST-tagged)
# Assay: gcPBM binding intensity (ln(normalized median fluorescence intensity)); higher = stronger DNA binding
# How it was run: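 After 1 h on an Agilent 4 × 180k array of primer-extended double-stranded 36-bp intergenic genomic probes and negative controls, bound GST-tagged P. falciparum DNA-binding domains were detected with Alexa488 anti-GST antibody and scanned at 488 nm. The domains had been expressed in E. coli, and binding took place in 1× PBS with 1% milk, 0.2 mg/ml BSA, 0.5% salmon testes DNA and 0.03% Triton X-100. Binding intensity is the highest Masliner-normalised natural-log median intensity across replicate spots of either probe orientation.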
row,Sequence,gcPBM binding intensity (ln)
1,TATATGTTTTAAAAGTGTACTTTAGTTTCAATTTTT [XGTACX_site4269],7.62 ± 0.47
2,AAGAATGTTAATAGTACACACAATTATTATATAAAT [CACACA_site3739],7.9 ± 0.37
3,AAAAATTTAATGAAATGTACATATATGTTATTAATA [XGTACX_site6091],7.66 ± 0.46
4,AATAACCACCAACACACACACATATATATATATATA [CACACA_site3540],9.44 ± 0.55
5,ATAATAATAATAAAAAGTACATTTAATTATATAGAA [XGTACX_site7742],7.88 ± 0.23
6,ATACATATTACATGTTGTACTCCAACAAAAATGCCC [XGTACX_site3201],8.26 ± 0.13
7,TTAATTTCATTTTCTACACACCTATCCTTTTTTTTT [CACACA_site772],7.67 ± 0.76
8,ACATCAAGAATTATTAAGAATACGGATAGATAAAAT [GTGCAC_negctrl_site261],7.67 ± 0.75
9,TAAATGCACATATACACACACCCAATTTTAAGTTTT [CACACA_site7428],9.31 ± 0.3
10,TATTCTCTCTTATGAACACACATTTTTATTTTCAAA [CACACA_site7554],7.88 ± 0.45
11,TAAAAATATATATGATTGCACTTAGGACAATATATA,8.64 ± 0.092
12,GGAAACAAAAAATATATACACACTAATCATAAAAAA [CACACA_site7890],7.76 ± 0.65
13,ATTAATATATTATCATGTACACAAAAATAATTTTAT [XGTACX_site7257],8.01 ± 0.23
14,AAGAAAAATATATAAATAAATAAATATATAAATATA [CACACA_negctrl_site836],7.23 ± 0.2
15,TAGACAAAATATAATGCACACTATTATTTTTATTTA [CACACA_site5508],11 ± 0.73
16,TATTTTAATATGTATACATGCATACCTACTCATACA [TGCATGCA_site779],7.91 ± 0.7
17,AACTTGTATTTATACACACACACACTGTCTTTTTTT [CACACA_site7009],8.04 ± 0.8
18,TAAAATTTTATAAAGGAACACACATTTTTTTTTTTT [CACACA_site8740],7.47 ± 0.54
19,AATTTAAAAATGGACACACACAAAAAATAATACTTA [CACACA_site250],7.75 ± 0.48
20,AAAAAAGTTGTATTTGCACACATAAAAAAAAGATAT [CACACA_site3839],9.85 ± 0.37
21,TTATAAATAAAAAATACACACATATATATATATATA [CACACA_site207],9.34 ± 0.28
22,AAAAATTAACAAAAGGTGCAATTTATTTATTAACGG,10.3 ± 0.5
23,GTATATTATATTGGGTGTACCATATATAATATAATC [XGTACX_site8579],7.79 ± 0.34

row,Sequence,gcPBM binding intensity (ln)
1,GGAAAAGGTATCCGTTCACACATAAATGGATACCAT [CACACA_site5072],7.27 ± 0.71
2,AAAAAAAAAAAAATGTGTACATACATATATTTATAT [XGTACX_site3076],7.895 ± 0.078
3,TATATATATGTATATGTGCACAGTTTTCTTATTAAA [GTGCAC_site9990],9.86 ± 0.16
4,TGGGCACCCATATACACACACAAATACAATGATAAA [CACACA_site4762],7.78 ± 0.28
5,AATATATTATATATATGTACATATGTGTATACATTT [XGTACX_site937],7.92 ± 0.5
6,TTTTATTTATTTTATTGTACATATATAAAACTATGA [XGTACX_site3476],7.96 ± 0.38
7,TCTATATAGATTTGCACACATAAAAATGCTTATATA [CACACA_site2389],9.06 ± 0.11
8,ATTACATATTGATAAGTGCAAGTGTGAGAAATGTTA,8.74 ± 0.43
9,CAATCAAATGGACACACACACACCTAAACATAAAAG [CACACA_site5524],8.04 ± 0.4
10,CTTTTTTTTTTAAATTGTACAAATGTGATGTAATAG [XGTACX_site3219],8.04 ± 0.18
11,ATTAAAAAATTACAAGCATGCTTGTTAAAATTTTTT [TGCATGCA_site941],7.42 ± 0.49
12,TTTTTCATTTTTAAAATAATTATAATATTATACATA [XGTACX_negctrl_site43],7.95 ± 0.54
13,TAAATCAGCCATAACACACATACATATATACATAAA [CACACA_site396],7.87 ± 0.42
14,TAAATATATATTATATGTACTTATATATATATATAT [XGTACX_site4448],8.9 ± 0.3
15,AGCAAATAAATAAATAAATAAATAAATATATATATA [TGCATGCA_negctrl_site40],9.31 ± 0.3
16,ATAATTAACAAATACACACACACACGCCCACAAAAA [CACACA_site6389],8.39 ± 0.085
17,ATATATATGTGTAAAAGTACATATATTTTGAAATAT [XGTACX_site4024],7.78 ± 0.47
18,TTTTAATAAAAGCCCATGCACACCTTAGAAAGTTTT [CACACA_site346],7.88 ± 0.59
19,AAAAAAATCTATATTACACACATATATACCTATATA [CACACA_site7464],7.62 ± 0.51
20,TACATTGTATACATATGTACACATATATATATATAT [XGTACX_site6174],9.31 ± 0.55
21,TATTTATGTTATAATTGTACAATAAACAAATTTTTT [XGTACX_site5306],7.83 ± 0.32
22,ATATTTTGTATAATCACACACACTATTCTTAAATAG [CACACA_site7270],7.79 ± 0.68
23,AGAAATTAATCGAAGTGTACATATAAACATACATAT [XGTACX_site5518],7.88 ± 0.51

row,Sequence,gcPBM binding intensity (ln)
1,ATTATACATTTTAGATGTACATATTTTAAATTTAAT [XGTACX_site5174],7.72 ± 0.54
2,AACAAACAAACAAATATACACACTTTTGTATAAAGT [CACACA_site3509],7.66 ± 0.61
3,AAATGGGCTTATTTATGTACTTAAATATATCTACCC [XGTACX_site3823],7.76 ± 0.47
4,TAATCAATTCAATATTGTACGATATTTACCTTTAAA [XGTACX_site4678],7.88 ± 0.47
5,CCCACATAAAAAAATAAACACACATATGTATATATA [CACACA_site9040],7.62 ± 0.67
6,AACCTCGTGTAATATGCATGTTCCCTTCAAAGTTTT [TGCATGCA_site459],7.88 ± 1.1
7,TACATATATATATACACACATACATATATATACGCA [CACACA_site792],7.79 ± 0.42
8,ATCTATGGAGCTTATACACACTTTTATATTTTAACA [CACACA_site5994],7.91 ± 0.69
9,TTTGAATTTTTATATACACACATTATTATATTATAT [CACACA_site1593],7.68 ± 0.59
10,TATTTATTTGTGGGGTGTACGAAATTTTTTTTTTTT [XGTACX_site5091],8.38 ± 0.42
11,TTTACATTAAATCACGCACACAAAAAAAAAAAAAAA [CACACA_site2418],8.34 ± 0.32
12,ATAGGTGAATACTAATATAAATTCAAGAGGGAAAAG [CACACA_negctrl_site720],7.64 ± 0.7
13,TATATATATATAATGTGTACATACTAAATAGAGGAC [XGTACX_site4153],9.34 ± 0.54
14,TAAATATAAAAATGCACACACACAAAAAAAAAAAAA [CACACA_site895],8.88 ± 0.085
15,GAAATGTATAAATCCATACACACATAAATTTTAATA [CACACA_site2364],7.58 ± 0.4
16,TTTTTCATGTTTATTAGTACATATATTAAGAATGGA [XGTACX_site3493],7.85 ± 0.42
17,TTTTGTAAATATATATGTACATATATATATATATAT [XGTACX_site5803],9.15 ± 0.5
18,ACCTATTTATAATAGTGTACGTACAAATTTGTTTAC [XGTACX_site8176],8.17 ± 0.41
19,AAAATAAAAAATTAATGTACTTAGAATTGTCACTAA [XGTACX_site1346],7.51 ± 0.36
20,TAAAATAATAAACAGAAGAAATCATTCATATAAAAA [XGTACX_negctrl_site502],7.53 ± 0.56
21,AATTTGTTGAAACACACACACACATACATATATATA [CACACA_site2287],8.37 ± 0.69
22,TGATATTATATATATACACACATGTATGTATATATA [CACACA_site1364],7.41 ± 0.35
23,ATAAATATATGATAAAGTACATATTTATATAATAAA [XGTACX_site7263],7.45 ± 0.38

row,Sequence,gcPBM binding intensity (ln)
1,ATGTATCTATATATATGTACACATATTTTAATTAAA [XGTACX_site3673],7.95 ± 0.37
2,ATATTTATTTATAATTGTACTAATAATATATTTTAA [XGTACX_site587],7.76 ± 0.29
3,TGTGCATAATTTTGTGCACACCACGCTAATAATTTT [CACACA_site2915],11.4 ± 0.48
4,GGAATAAATAATATTATACACACGTATATTATTATA [CACACA_site2435],7.43 ± 0.36
5,AAGCTTTCATAAAGATGTACTTTTTAAAAATAATCT [XGTACX_site5725],7.76 ± 0.23
6,AAATTTAGGAACATTATATATATATATATATATATA [CACACA_negctrl_site862],9.41 ± 0.45
7,TATTTCATCTTATTTTAGGAAAAACTAATATATAAG [CACACA_negctrl_site1823],7.36 ± 0.42
8,TATTCGTCTTTTTTCTCACACACCCTTTTTATTAAA [CACACA_site2508],8.15 ± 0.52
9,GAACATTTGAAATATGCACACATGTATAAACCTACA [CACACA_site2654],8.7 ± 0.4
10,TAAAAATAAAGAAAATGTACATAAATAATAATACAT [XGTACX_site2278],7.79 ± 0.57
11,CAAAAAAAGGAAAAGATACACACCGTAAATTAAAAT [CACACA_site3612],7.65 ± 0.75
12,AGCAGGATTAAAAAAAGTACAAGAATTAATATTTAA [XGTACX_site3413],7.75 ± 0.099
13,TATATCTATAATATTACACACATATATTTATATTTT [CACACA_site7595],7.67 ± 0.37
14,AATTATTATCCCCTCACACACAAAAATAAAAAGAAT [CACACA_site2885],8.39 ± 0.63
15,ATTTTTTATTGTTATAAAAAAAAAATTAAACAATTA [CACACA_negctrl_site1077],7.32 ± 0.38
16,AAATTAAAGGCATAAAAGAAAATATTTAATAAAAAA [CACACA_negctrl_site1689],7.71 ± 0.73
17,AAAGAAAATAACAAAATTTTGAAAACATCACATTCG [CACACA_negctrl_site89],7.63 ± 0.69
18,ATATATAATAAACAGGTGCATTGTTTTATTTTGTAT,10.7 ± 0.42
19,ACCAGTTCTTAATACAAATATGTACATATATATATA [GTGCAC_negctrl_site56],9.14 ± 0.33
20,TTTTTTTTAATTGTGATACGTATATTATTTAATGAT [CACACA_negctrl_site38],7.82 ± 0.37
